Laboratory results as given in PubChem BioAssay AID938 (National Center for Advancing Translational Sciences (NCATS), 2007).
Out of some 73,000 compounds screened, about 1,800 (2.5%) were called active. The inconclusive results got no clear call from the source; some entries with a clear call stand among them for comparison. Calls come from the whole dose curve; as a rule, active = well fitted activation curve with a large enough effect; inconclusive = small, poorly fitted or top-dose-only effect; inactive = no such curve, though single readings can be large or run the other way. Potencies of inconclusive entries are left out as doubtful fits.

Experiment: qHTS Assay for Agonists of the Thyroid Stimulating Hormone Receptor: Activators of Intracellular cAMP Concentrations in Parental HEK 293; note: nearly all actives have a fitted effect of over 55% in size; for activation: % of control where 0% means no effect
Conditions: parental HEK293 CNG cAMP sensor, membrane potential fluorescence; activation: at 57.1 µM (top of the series) unless noted
How it was run: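 Parental HEK 293 cells stably expressing a modified CNG channel (no TSHR) report cAMP rise as membrane depolarization. Membrane potential dye with 100 uM RO 20-1724 was loaded for 60 min at room temperature, then compound added for 30 min; fluorescence read at 590 nm.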
Potency is the fitted concentration of half-maximal effect; tags give direction and shape of the fitted curve.

Question: With `c1ccc(Nc2ccccc2Nc2ccccn2)nc1` as the compound, how does the Potency read?
Answer: inactive

Question: With `COc1cccc(C2=CC(c3ccc(C)cc3)n3ncnc3N2)c1` (configuration not stated) as the compound, how does the Potency read?
Answer: active: 15.8 µM

Question: For `O=C(NC1CCN(Cc2ccccc2)CC1)C1CCN(c2nnc(-n3cccc3)s2)CC1`, which Potency is on record?
Answer: inconclusive [activator, partial curve, poor fit]

Question: With `COC(=O)NC(/C(C(=O)OC)=C(\C)NCc1ccccc1)c1ccc(F)cc1` (configuration not stated) as the compound, how does the Potency read?
Answer: inconclusive [activator, single point]

Question: With `Cc1nc2oc3c(NCC4CCCO4)ncnc3c2c2c1COC(C)(C)C2` (configuration not stated) as the compound, how does the Potency read?
Answer: inactive

Question: For `Cc1ccc(C)c(-n2c(SCC(=O)NCC3CCCO3)nnc2-c2ccoc2C)c1` (configuration not stated), which Potency is on record?
Answer: inconclusive [activator, partial curve]

Question: For `Cc1cc(NC(=O)c2cc(-c3cccnc3)nc3c(C)c(C)ccc23)no1`, which Potency is on record?
Answer: active: 25.1 µM

Question: With `COc1ccc(CCN2C(=O)CC(NCc3ccc4c(c3)OCO4)C2=O)cc1OC` (configuration not stated) as the compound, how does the Potency read?
Answer: inconclusive [activator, single point]

Question: With `N#Cc1ccc(C(c2nnnn2CCc2ccccc2)N2CCCCCC2)cc1` (configuration not stated) as the compound, how does the Potency read?
Answer: active: 15.8 µM

Question: Which Potency does the source give for `CN1CCO[C@H](c2ccccc2)c2ccccc2C1` here?
Answer: inactive

Question: With `CCOC(=O)c1ccc(N2C(=O)c3n[nH]c(C)c3C2c2ccccc2)cc1` (configuration not stated) as the compound, how does the Potency read?
Answer: active: 31.6 µM

Question: With `Cc1ccc(C)c(NC(=O)CS(=O)(=O)c2c[nH]c3ccccc23)c1` as the compound, how does the Potency read?
Answer: inconclusive [activator, single point]

Question: For `COc1ccc(OC)c(C(=O)CSc2nc3cccnc3n2C)c1`, which Potency is on record?
Answer: inconclusive [activator, single point]

Question: For `O=S(=O)(c1ccc(S(=O)(=O)N2CCCC3(CCCCC3)C2)cc1)N1CCCCC1`, which Potency is on record?
Answer: inconclusive [activator, single point]

Question: With `O=C(CCN1CCN(c2ccccc2)CC1)Nc1nccs1` as the compound, how does the Potency read?
Answer: inconclusive [activator, single point]

Question: With `Cc1cccc(OCc2nc(C#N)c(NCc3ccc4c(c3)OCO4)o2)c1` as the compound, how does the Potency read?
Answer: active: 15.8 µM

Question: For `COc1ccc(CCNc2oc(-c3ccc(C)cc3)nc2C#N)cc1OC`, which Potency is on record?
Answer: inactive

Question: With `Cc1nc(Nc2nc3ccccc3o2)nc2c1CCC2` as the compound, how does the Potency read?
Answer: inactive

Question: With `CN1CCN(c2oc(COc3ccc(-c4ccccc4)cc3)nc2C#N)CC1` as the compound, how does the Potency read?
Answer: inconclusive [activator, single point]

Question: Which Potency does the source give for `O=C(NCCCN1CCOCC1)c1ccc(Br)cc1` here?
Answer: inconclusive [activator, single point]

Question: With `CC(=O)N[C@@H](c1ccccc1)[C@]1(C)C[C@H]1[C@@H](C)C(=O)Nc1ccc2ccccc2c1` as the compound, how does the Potency read?
Answer: inconclusive [activator, single point]

Question: For `CCOc1ccc(N2C(=O)CC(Sc3nc(C)cc(C)c3C#N)C2=O)cc1` (configuration not stated), which Potency is on record?
Answer: inconclusive [activator, single point]

Question: With `O=S(=O)(c1cccc(-c2nnc(SC(F)F)n2-c2ccccc2)c1)N1CCCCC1` as the compound, how does the Potency read?
Answer: inconclusive [activator, partial curve]

Question: With `COC(=O)C1=C(C(=O)c2ccc(C)cc2)C(c2ccc(O)c(OC)c2)n2nnnc2N1` (configuration not stated) as the compound, how does the Potency read?
Answer: inactive

Question: Which Potency does the source give for `N[C@@H](Cc1c[nH]c2ccc(O)cc12)C(=O)O` here?
Answer: inconclusive [activator, single point]

Question: For `O=C(NCCCN1CCCCC1)C1CCC(=O)N1CCc1ccccc1` (configuration not stated), which Potency is on record?
Answer: inconclusive [activator, partial curve]

Question: For `CCCn1c(NCc2ccc(C)o2)nc2ccccc21`, which Potency is on record?
Answer: inconclusive [activator, partial curve, poor fit]

Question: With `CO/N=C\[C@@H](OC)[C@H](C)/C=C\CC(=O)OC` as the compound, how does the activation read?
Answer: inactive: -0.332% [at 11.4 µM]

Question: For `COC(=O)[C@@]1(Cc2ccc(F)cc2)[C@H]2c3cc(C(=O)N4CCCC4)n(Cc4ccc(Cl)c(C(F)(F)F)c4)c3C[C@H]2CN1C(=O)c1ccccc1`, which Potency is on record?
Answer: inconclusive [activator, full curve, poor fit]

Question: Which Potency does the source give for `NC(=O)c1cc(-c2ccccc2)nc(N2CCOCC2)n1` here?
Answer: inactive

Question: With `O=C(COC(=O)c1ccco1)NCc1ccco1` as the compound, how does the Potency read?
Answer: inconclusive [activator, single point]

Question: Which Potency does the source give for `CS(=O)(=O)N(CC(=O)N1CCN(Cc2ccccc2)CC1)Cc1ccccc1` here?
Answer: inconclusive [activator, partial curve]

Question: For `O=C(CSCc1cnn(-c2ccccc2)c1-n1cccc1)NCc1ccc2c(c1)OCO2`, which Potency is on record?
Answer: active: 31.6 µM

Question: With `Cn1cccc1C(=O)N1CCC2(CCCN(Cc3ccncc3)C2)CC1` as the compound, how does the Potency read?
Answer: inactive

Question: Which Potency does the source give for `CCOC(=O)c1oc2ccccc2c1CSc1nnc(-c2ccco2)o1` here?
Answer: inconclusive [activator, partial curve]

Question: For `Cn1c(NCc2cccs2)nc2ccccc21`, which Potency is on record?
Answer: inconclusive [activator, single point]

Question: With `COCCNc1nc(-c2ccoc2)nc2ccccc12` as the compound, how does the Potency read?
Answer: inconclusive [activator, single point]

Question: With `COCc1nnc(NC(=O)CSc2ccccc2)s1` as the compound, how does the Potency read?
Answer: inconclusive [activator, single point]

Question: Which Potency does the source give for `Cc1ccc(C(=O)CSc2nnc(-c3cccs3)n2C)o1` here?
Answer: inconclusive [activator, single point]

Question: Which Potency does the source give for `CCCn1c(=O)c2ccccc2n2c(SCCOc3ccccc3F)nnc12` here?
Answer: inconclusive [activator, partial curve]

Question: With `CCN(CC)S(=O)(=O)c1cccc(-c2nnc(SCCOc3ccccc3)o2)c1` as the compound, how does the Potency read?
Answer: active: 7.94 µM

Question: For `CC1=CC(=O)CC(C)(C)[C@@]1(O)/C=C\C(C)=C\C(=O)O`, which Potency is on record?
Answer: inactive

Question: Which Potency does the source give for `O=C(c1ccncc1)N1CCC2(CCCN(Cc3ccncc3)C2)CC1` here?
Answer: inactive

Question: With `CCCn1c(-c2ccc(F)cc2)nc2c(NCCCCN(C)C)nc(C)nc21` as the compound, how does the Potency read?
Answer: inconclusive [activator, partial curve]

Question: Which Potency does the source give for `C=CCSc1nc2c(c(=O)[nH]c(=O)n2C)n1C(C)C` here?
Answer: inactive

Question: With `O=c1oc2c3c4c(cc2s1)CCCN4CCC3` as the compound, how does the Potency read?
Answer: inactive

Question: Which Potency does the source give for `COc1ccc(-c2nnc(SCC(=O)Nc3ncc(C)s3)n2-c2ccccc2)cc1OC` here?
Answer: inconclusive [activator, partial curve]

Question: For `COc1ccc(CC(=O)N2CCN(c3ccccn3)CC2)cc1`, which Potency is on record?
Answer: inactive

Question: For `COc1ccccc1-c1nnc(SCC(=O)N2CCC(C)CC2)o1`, which Potency is on record?
Answer: inconclusive [activator, single point]

Question: Which Potency does the source give for `O=c1[nH]c(N2CCc3ccccc3C2)nc2c1CCC2` here?
Answer: inactive

Question: With `CC(=O)[C@@H]1CC[C@@H]2[C@@H]3C[C@H](C)C4=CC(=O)CC[C@@]4(C)[C@H]3[C@H](O)C[C@]21C` as the compound, how does the Potency read?
Answer: inactive

Question: For `COc1ccc(Cl)c(NC(=O)Nc2c(C)n(-c3ccccc3)c(=O)n2C)c1`, which Potency is on record?
Answer: inconclusive [activator, partial curve]

Question: Which Potency does the source give for `Cn1c(C(=O)OC(C(=O)NC2CCCC2)c2ccncc2)cc2sccc21` (configuration not stated) here?
Answer: inconclusive [activator, partial curve]

Question: For `O=c1cc(CF)[nH]c(=S)[nH]1`, which activation is on record?
Answer: inactive: 1.67% [at 11.4 µM]

Question: With `CCN(CC)C(=O)Nc1cnc2ccccc2c1` as the compound, how does the Potency read?
Answer: inconclusive [activator, single point]

Question: With `c1ccc(N2CCN(c3c4c(nc5ncnn35)CCC4)CC2)cc1` as the compound, how does the Potency read?
Answer: inconclusive [activator, partial curve]

Question: With `Cn1nc(-c2ccc(N3CCCCC3)c(NC(=O)c3ccco3)c2)c2ccccc2c1=O` as the compound, how does the Potency read?
Answer: inconclusive [activator, single point]

Question: With `Cc1ccc(-c2csc(N(CCCN3CCOCC3)C(=O)c3ccco3)n2)cc1` as the compound, how does the Potency read?
Answer: inconclusive [activator, full curve]

Question: With `CC1CCCCC1NC(=O)c1nn(C)c(=O)c2ccccc12` (configuration not stated) as the compound, how does the Potency read?
Answer: inconclusive [activator, partial curve]

Question: Which Potency does the source give for `Cc1cc2oc(=O)cc(CN3CCCCC3C)c2c(C)c1Cl` (configuration not stated) here?
Answer: active: 25.1 µM

Question: For `COc1cccc(OC)c1C(=O)N1CCN(Cc2ccccc2C(F)(F)F)CC1`, which Potency is on record?
Answer: inconclusive [activator, full curve]

Question: Which Potency does the source give for `CCc1ccccc1NC(=O)N1C2CCCC1CC(NC(=O)C(C)(C)C)C2` (configuration not stated) here?
Answer: inconclusive [activator, single point]

Question: With `c1ccc(Nc2nc(-c3ccoc3)nc3ccccc23)cc1` as the compound, how does the Potency read?
Answer: inconclusive [activator, single point]

Question: For `COc1ccc(OC)c(CNC(=O)C2CCCN(c3nc4ccccc4o3)C2)c1` (configuration not stated), which Potency is on record?
Answer: inconclusive [activator, partial curve]

Question: For `Cc1ccc(C)c(-n2nnnc2SCC(=O)NCCC2=CCCCC2)c1`, which Potency is on record?
Answer: inconclusive [activator, single point]

Question: With `Cc1ccc(-c2nc3cc(NC(=O)C(C)C)ccc3o2)cc1C` as the compound, how does the Potency read?
Answer: inactive

Question: With `Cc1cccc(NC(=O)c2cc(NC(=O)c3ccco3)ccc2Cl)n1` as the compound, how does the Potency read?
Answer: inconclusive [activator, single point]

Question: Which Potency does the source give for `CCCCCC1=C2CNC(CCC)(C(=O)OC)C=C2C(C)C1=O` (configuration not stated) here?
Answer: inconclusive [activator, partial curve]

Question: Which Potency does the source give for `Clc1ccc(Cn2c(CN3CCCC3)nc3ccccc32)cc1` here?
Answer: inconclusive [activator, partial curve]

Question: For `CCn1c(SCC(=O)NCc2ccc(F)cc2)nc2c(c1=O)SC(C)C2` (configuration not stated), which Potency is on record?
Answer: inconclusive [activator, single point]

Question: Which Potency does the source give for `Cc1cc(C)cc(NC(=O)C2CCCN(c3nccc(C)n3)C2)c1` (configuration not stated) here?
Answer: inconclusive [activator, partial curve]

Question: Which Potency does the source give for `Nn1c(-c2cccs2)nc2sc3c(c2c1=O)CCCC3` here?
Answer: inconclusive [activator, single point]
